Measurements from PubChem BioAssay (NCI).
“And” between values parts separate entries of the source, which are not always exact repeats. Equal entries are not always repeated.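 All cell lines were grown in 96-well plates and treated with compound for 48 hours. GI50 marks 50% less growth. TGI is the concentration that stops growth completely.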

System: NCI-H322M lung
Test: NCI-60 cell line screen, 48 h

**Q.** How did the TGI turn out when `NC(=O)NC1C(C(=O)O)N(Cc2ccccc2)C(=O)N1Cc1ccccc1` (stereo not given) was run?
**A.** > 100 µM

**Q.** Which TGI does the source give for `Brc1cccc(C2ON=C(c3ccccc3)N2C23CC4CC(CC(C4)C2)C3)c1` (stereo not given) here?
**A.** > 10 µM

**Q.** Which GI50 does the source give for `COC(=O)[C@H](Cc1cn(C)cn1)NC(=O)[C@H](C)NC(=O)Nc1cc(C(F)(F)F)cc(C(F)(F)F)c1` here?
**A.** > 10 µM

**Q.** And the TGI?
**A.** > 10 µM

**Q.** What does the source list for `NC1(Cc2ccc(Cl)cc2)CCN(c2ncnc3[nH]ccc23)CC1`?
**A.** GI50: 4.09 µM; TGI: 35.1 µM

**Q.** With `C/C(=N\Nc1nc2ccccc2s1)c1cc2ccccc2cn1` as the compound, how does the TGI read?
**A.** 55.5 µM

**Q.** For `CN(CCc1ccccn1)C(=S)N/N=C(\c1ccccc1)c1ccccn1`, which TGI is on record?
**A.** 3.66 µM

**Q.** For `COc1cc2c(/C=C3/C(=O)Nc4ccc(Cl)cc43)c(Cl)[nH]c2cc1C`, which TGI is on record?
**A.** 15.5 µM

**Q.** For `CC(=O)OCC1OC(n2c(Br)nc3c2c(=O)n(C)c(=O)n3C)C(OC(C)=O)C1OC(C)=O` (stereo not given), which TGI is on record?
**A.** > 100 µM

**Q.** Which results are given for `CN(C)c1ccc(/C=N/S(=O)(=O)c2ccc(-n3c(-c4ccccc4)nc4c(Br)cc(Br)cc4c3=O)cc2)cc1`?
**A.** GI50: 48.9 µM; TGI: > 100 µM

**Q.** How did the TGI turn out when `Cn1c(=O)c2c(nc3sc4ccccc4c(=O)n32)n(C)c1=O` was run?
**A.** > 100 µM

**Q.** How did the TGI turn out when `COC1CC(N)C(O)C(C)O1` (stereo not given) was run?
**A.** > 100 µM

**Q.** Which results are given for `CC([O-])=C1C(=O)c2ccccc2C1=O.CC([O-])=C1C(=O)c2ccccc2C1=O.CC[O-].CC[O-].[Ti+4]`?
**A.** GI50: > 100 µM; TGI: > 100 µM

**Q.** For `COc1ccc2c(c1)-c1nn(CCCN(C)C)c3ccc([N+](=O)[O-])c(c13)N2`, which TGI is on record?
**A.** 2.64 µM and 3.93 µM

**Q.** For `CCOC(=O)Nc1cc2ccccc2c(N=Nc2ccccc2)c1O`, which TGI is on record?
**A.** > 100 µM

**Q.** Which TGI does the source give for `CCOC(=O)/C=C(\C(=O)OCC)n1cc(C)c(=O)n(Cc2cnnn2COCCOC(C)=O)c1=O` here?
**A.** > 73.8 µM

**Q.** Which TGI does the source give for `O=C(O)[C@H](CCC[C@H]1C(=O)O[C@H](c2ccccc2)[C@H](c2ccccc2)N1C(=O)OCc1ccccc1)N[C@@H](c1ccccc1)[C@H](O)c1ccccc1` here?
**A.** 97.2 µM

**Q.** For `c1ccc2c(c1)cc1n2CCc2c-1[nH]c1ccccc21`, which TGI is on record?
**A.** > 10 µM

**Q.** `CC1(C)COC2=C(C1)C(=O)c1ccccc1C2=O` was tested. Which TGI did it give?
**A.** 3.05 µM

**Q.** What does the source list for `Cc1[nH]c2cc(F)ccc2c1-c1nc2c3cccnc3c3ncccc3c2[nH]1`?
**A.** GI50: 0.0457 µM; TGI: 1.02 µM

**Q.** How did the GI50 turn out when `O=C1/C(=C/c2ccc(O)cc2)COc2ccc(O)c(O)c21` was run?
**A.** 3.69 µM

**Q.** And the TGI?
**A.** > 100 µM

**Q.** `C/C(=N\O)c1cccc[n+]1Cc1ccccc1` was tested. Which TGI did it give?
**A.** > 100 µM

**Q.** How did the TGI turn out when `CCC(C)C(=O)OCC(=O)c1ccc(-c2ccccc2)cc1` (stereo not given) was run?
**A.** > 100 µM

**Q.** How did the TGI turn out when `Cc1ccc2c(c1)nc1n2C(N)=Nc2ccccc2S1` was run?
**A.** > 100 µM

**Q.** How did the GI50 turn out when `CC1SC2(CCCCC2)N(NC(=O)c2[nH]c3ccc(Br)cc3c2-c2ccccc2)C1=O` (stereo not given) was run?
**A.** 51.2 µM

**Q.** And the TGI?
**A.** > 100 µM

**Q.** How did the GI50 turn out when `O=C1CC/C(=C/COc2cc(=O)oc3ccccc23)O1` was run?
**A.** 14.6 µM

**Q.** And the TGI?
**A.** 41.7 µM

**Q.** With `COc1cc(OC)c2c(c1)OC(c1cccnc1)C(c1ccccc1)C2=O` (stereo not given) as the compound, how does the TGI read?
**A.** > 100 µM

**Q.** How did the TGI turn out when `Cc1cccc(N2C(=O)C3c4[nH]c5ccc(C)cc5c4C4CCC(C(C)(C)C)CC4C3C2=O)c1` (stereo not given) was run?
**A.** > 100 µM

**Q.** With `CC(C)(C)OC(=O)NCc1cccc(N=C=S)c1` as the compound, how does the GI50 read?
**A.** 16.9 µM

**Q.** And the TGI?
**A.** 39.1 µM

**Q.** With `O=C1N(Cc2ccccc2Cl)c2ccccc2C12NN=C(c1cccc(Cl)c1)S2` (stereo not given) as the compound, how does the GI50 read?
**A.** 1.57 µM

**Q.** What about the TGI of the same compound?
**A.** 3.13 µM

**Q.** With `O=c1c(Cc2ccc(Cl)cc2)nnc2sc(-c3ccc(-c4ccc(Cl)cc4Cl)o3)nn12` as the compound, how does the TGI read?
**A.** > 100 µM

**Q.** For `NC(=S)N1N=C2c3ccccc3CC[C@H]2[C@@H]1c1ccc(Cl)cc1`, which TGI is on record?
**A.** > 100 µM

**Q.** For `O=[N+]([O-])c1cc2no[n+]([O-])c2cc1N1CCCCC1`, which TGI is on record?
**A.** 28.6 µM

**Q.** With `O=Cc1ccc(-c2ccc(-c3nc4ccccc4s3)cc2)s1` as the compound, how does the GI50 read?
**A.** > 100 µM

**Q.** And the TGI?
**A.** > 100 µM

**Q.** Which TGI does the source give for `CC(C)c1ccccc1SCc1cc(=O)cc(CSc2ccccc2C(C)C)o1` here?
**A.** 41.9 µM

**Q.** `NC(CSSCC(N)C(=O)O)C(=O)O` (stereo not given) was tested. Which GI50 did it give?
**A.** > 100 µM

**Q.** What about the TGI of the same compound?
**A.** > 100 µM

**Q.** For `Cc1cccc(CC(Cc2ccc(C)cc2C(=O)O)C(=O)O)c1` (stereo not given), which TGI is on record?
**A.** > 100 µM

**Q.** Which GI50 does the source give for `COc1cc(C)c2sc3ccccc3c(=O)c2c1NCCN(C)C` here?
**A.** 8.51 µM

**Q.** And the TGI?
**A.** 21.2 µM

**Q.** With `COc1cc2oc3c(c(=O)c2c(O)c1/C=C/C(C)C)C(C=C(C)C)Oc1cc(O)ccc1-3` (stereo not given) as the compound, how does the TGI read?
**A.** 29.8 µM

**Q.** Which TGI does the source give for `Cn1cc(C(=O)c2ccccc2)cc(C(=O)c2ccccc2)c1=O` here?
**A.** > 100 µM

**Q.** `COc1ccc(-c2c3c(nc4n[nH]c(-c5ccc(Cl)cc5)c24)-c2ccccc2C(=O)C3=O)cc1` was tested. Which GI50 did it give?
**A.** 2.47 µM

**Q.** What about the TGI of the same compound?
**A.** 10.1 µM

**Q.** With `COC(=O)Cc1cc(=O)[nH]c2c1C(=O)CCC2` as the compound, how does the TGI read?
**A.** > 100 µM
